# Reference: the supplement of paper PMC8728848
# Some of the results follow.
# B1: NKp30 (Homo sapiens), O14931 (protein)
# chain: MAWMLLLILIMVHPGSCALWVSQPPEIRTLEGSSAFLPCSFNASQGRLAIGSVTWFRDEVVPGKEVRNGTPERFGRLAPLASSRFLHDHQAELHIRDVRGHDASIYVCRVEVLGLGVGTGNGTRLVVRKEHPQLGAGTHADPEAPEAEGAPSVFLFPPKPKDTLMISRTPEVTCVVVDVSHEDPEVKFNWYVDGVEVHNAKTPREEQYNSTYRVVSVLTVLHQDWLNGKEYKCKVSNKALPAPIEKTISKAKGQPREPQVYTLPPSRDELTKNQVSLTCLVKGFYPSDIAVEWESNGQPENNYKTTPPVLDSDGSFFLYSKLTVDKSRWQQGNVFSCSVMHEALHNHYTQKSLSLSPGK
# How the values were obtained:
# Experiment in all cases: glycan array binding signal (z-score within array); higher = stronger binding
# Conditions in all cases: glycan notation: IUPAC condensed, linker removed
# [1] = biological target: Neu5Ac(a2-6)Gal(b1-4)GlcNAc(b1-2)Man(a1-3)[Gal(b1-4)GlcNAc(b1-2)Man(a1-6)]Man(b1-4)GlcNAc(b1-4)GlcNAc
# How it was run: (§1)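 Columns mapping to the same glycan were averaged after glycan names were converted to IUPAC-condensed notation. The data come from 3228 arrays in the Consortium for Functional Glycomics database, limited to those with an available protein sequence. Binding is reported as a within-array Z-score averaged across arrays of one protein sequence and across linkers.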
# [2] = biological target: Neu5Ac(a2-6)Gal(b1-4)GlcNAc(b1-2)Man(a1-3)[GlcNAc(b1-2)Man(a1-6)]Man(b1-4)GlcNAc(b1-4)GlcNAc
# How it was run: as §1
# [3] = biological target: Neu5Ac(a2-6)Gal(b1-4)GlcNAc(b1-2)Man(a1-3)[GlcNAc(b1-2)Man(b1-4)GlcNAc(b1-2)Man(a1-6)]Man(b1-4)GlcNAc(b1-4)GlcNAc
# How it was run: as §1
# [4] = biological target: Neu5Ac(a2-6)Gal(b1-4)GlcNAc(b1-2)Man(a1-3)[Neu5Ac(a2-6)Gal(b1-4)GlcNAc(b1-2)Man(a1-6)]Man(b1-4)GlcNAc(b1-4)GlcNAc
# How it was run: as §1
# [5] = biological target: Neu5Ac(a2-6)Gal(b1-4)GlcNAc(b1-2)Man(a1-6)[Gal(b1-4)GlcNAc(b1-2)Man(a1-3)]Man(b1-4)GlcNAc(b1-4)GlcNAc
# How it was run: as §1
# [6] = biological target: Neu5Ac(a2-6)Gal(b1-4)GlcNAc(b1-2)Man(a1-6)[GlcNAc(b1-2)Man(a1-3)]Man(b1-4)GlcNAc(b1-4)GlcNAc
# How it was run: as §1
# [7] = biological target: Neu5Ac(a2-6)Gal(b1-4)GlcNAc(b1-3)Gal(b1-4)GlcNAc
# How it was run: as §1
# [8] = biological target: Neu5Ac(a2-6)Gal(b1-4)GlcNAc(b1-3)Gal(b1-4)[Fuc(a1-3)]GlcNAc(b1-3)Gal(b1-4)[Fuc(a1-3)]GlcNAc
# How it was run: as §1
# [9] = biological target: Neu5Ac(a2-6)Gal(b1-4)GlcNAc6S
# How it was run: as §1
# Neu5Ac(a2-6)GalNAc = biological target: Neu5Ac(a2-6)GalNAc
# How it was run: as §1
# [10] = biological target: Neu5Ac(a2-6)GalNAc(b1-4)GlcNAc
# How it was run: as §1
# Neu5Ac(a2-8)Neu5Ac = biological target: Neu5Ac(a2-8)Neu5Ac
# How it was run: as §1
# [11] = biological target: Neu5Ac(a2-8)Neu5Ac(a2-3)Gal(b1-4)Glc
# How it was run: as §1
# [12] = biological target: Neu5Ac(a2-8)Neu5Ac(a2-3)[GalNAc(b1-4)]Gal(b1-4)Glc
# How it was run: as §1
# [13] = biological target: Neu5Ac(a2-8)Neu5Ac(a2-8)Neu5Ac
# How it was run: as §1
# [14] = biological target: Neu5Ac(a2-8)Neu5Ac(a2-8)Neu5Ac(a2-3)Gal(b1-4)Glc
# How it was run: as §1
# [15] = biological target: Neu5Ac(a2-8)Neu5Ac(a2-8)Neu5Ac(a2-3)[GalNAc(b1-4)]Gal(b1-4)Glc
# How it was run: as §1
# [16] = biological target: Neu5Ac(a2-8)Neu5Ac(a2-8)Neu5Ac(a2-8)Neu5Ac(a2-3)[GalNAc(b1-4)]Gal(b1-4)Glc
# How it was run: as §1
# [17] = biological target: Neu5Ac(b2-6)Gal(b1-4)GlcNAc
# How it was run: as §1
# Neu5Ac(b2-6)GalNAc = biological target: Neu5Ac(b2-6)GalNAc
# How it was run: as §1
# [18] = biological target: Neu5Ac9Ac(a2-6)Gal(b1-4)GlcNAc
# How it was run: as §1
# [19] = biological target: Neu5Gc(a2-3)Gal(b1-3)GlcNAc
# How it was run: as §1
# [20] = biological target: Neu5Gc(a2-3)Gal(b1-3)[Fuc(a1-4)]GlcNAc
# How it was run: as §1
# Neu5Gc(a2-3)Gal(b1-4)Glc = biological target: Neu5Gc(a2-3)Gal(b1-4)Glc
# How it was run: as §1
# [21] = biological target: Neu5Gc(a2-3)Gal(b1-4)GlcNAc
# How it was run: as §1
# [22] = biological target: Neu5Gc(a2-3)Gal(b1-4)[Fuc(a1-3)]GlcNAc
# How it was run: as §1
# [23] = biological target: Neu5Gc(a2-6)Gal(b1-4)GlcNAc
# How it was run: as §1
# Neu5Gc(a2-6)GalNAc = biological target: Neu5Gc(a2-6)GalNAc
# How it was run: as §1
# [24] = biological target: Neu5Gc(b2-6)Gal(b1-4)GlcNAc
# How it was run: as §1
binder,measurement,setting,value
B1,glycan array binding signal (z-score),[1],0.066
same,glycan array binding signal (z-score),[2],-0.437
same,glycan array binding signal (z-score),[3],-0.415
same,glycan array binding signal (z-score),[4],-0.389
same,glycan array binding signal (z-score),[5],0.018
same,glycan array binding signal (z-score),[6],-0.315
same,glycan array binding signal (z-score),[7],-0.604
same,glycan array binding signal (z-score),[8],-0.38
same,glycan array binding signal (z-score),[9],-0.276
same,glycan array binding signal (z-score),Neu5Ac(a2-6)GalNAc,-0.49
same,glycan array binding signal (z-score),[10],-0.506
same,glycan array binding signal (z-score),Neu5Ac(a2-8)Neu5Ac,-0.523
same,glycan array binding signal (z-score),[11],-0.405
same,glycan array binding signal (z-score),[12],0.136
same,glycan array binding signal (z-score),[13],-0.521
same,glycan array binding signal (z-score),[14],-0.275
same,glycan array binding signal (z-score),[15],-0.221
same,glycan array binding signal (z-score),[16],-0.717
same,glycan array binding signal (z-score),[17],0.294
same,glycan array binding signal (z-score),Neu5Ac(b2-6)GalNAc,-0.201
same,glycan array binding signal (z-score),[18],0.048
same,glycan array binding signal (z-score),[19],-0.401
same,glycan array binding signal (z-score),[20],-0.11
same,glycan array binding signal (z-score),Neu5Gc(a2-3)Gal(b1-4)Glc,0.058
same,glycan array binding signal (z-score),[21],-0.606
same,glycan array binding signal (z-score),[22],-0.362
same,glycan array binding signal (z-score),[23],-0.135
same,glycan array binding signal (z-score),Neu5Gc(a2-6)GalNAc,0.096
same,glycan array binding signal (z-score),[24],0.315
